These results are taken from paper PMC12136788.

Some of the results follow.

T1: UNK ZnF1-3 (human, UniProt Q9C0B0 31-174)
T1 sequence: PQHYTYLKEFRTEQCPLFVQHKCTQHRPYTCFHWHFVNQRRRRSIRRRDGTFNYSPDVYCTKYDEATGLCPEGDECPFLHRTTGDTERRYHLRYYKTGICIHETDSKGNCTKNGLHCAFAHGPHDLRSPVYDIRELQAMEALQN

B1: 37438653_37438773_3022_3pUTR_ENSMUSG00000026915_ENSMUST00000028279|mouse|control|control (ssRNA)
RNA: GGGAGUUCUACAGUCCGACGAUCGAAGGCCACAAGAACAAAAGAGGGUGAUUGAUUAAUUUAUUUUUUUAACUUGGAAAUUCGUAAACUAAAAUAAUCACAAUCCUCCUUCCCCAUCUUUGGAUGGUGCCAUCAUUUUAAUAACAACAGAGGAUUGAGCAUCA
B2: chr15:79189513:79189514:+_ENSG00000185787_ENST00000426013|hu_mus|FALSE|FALSE (ssRNA)
RNA: GGGAGUUCUACAGUCCGACGAUCCUCCUUUUAUUUUCUCUGUUUAAAAUCAAAGAGGAAACAAACAACUCUGUUAUACACUAACGGUCUUCAAAGUACAUCAUUUGUACAAGAGAAGGACUAAGAACCAAACUGUUUACAGAGCAACAGAGGAUUGAGCAUCA
B3: chr6:38652254:38652255:-_ENSG00000124767_ENST00000373365|hu_hu|hu_hu_hu_mus_False|58_58 (ssRNA)
RNA: GGGAGUUCUACAGUCCGACGAUCCGAGAACUUCAUAGCAGGGAAGUCAAGCUUCUGCAGGAGGGUCAGUCCAAGAACUCUAGUAUAAAAAUCCAGGGACUUCUUAGGAUCCUUAAUUCUUAGCAUCGUUUGCUGCAGUAGAAACAACAGAGGAUUGAGCAUCA
B4: chr7:87731985:87731986:-_ENSMUSG00000030527_ENSMUST00000122255|mus_mus|FALSE|FALSE (ssRNA)
RNA: GGGAGUUCUACAGUCCGACGAUCUGAAGAGAGGUCUGGGGAAGCCGGUAGCCACUUCAAUGCUGCCGCCUAAGACAGGCUAGUCACAAAGGCAGCAUCGAGUGCAGGCUCACACGACUGCAGCAGGGCAACGCAGUCUCCUGCCAACAGAGGAUUGAGCAUCA
B5: chr11:107358869:107358870:+_ENSMUSG00000020720_ENSMUST00000021063|mus_mus|motif|central (ssRNA)
RNA: GGGAGUUCUACAGUCCGACGAUCUCUCUGGAAGUUGAUGACUCCAGCCAACCUGUCUACUUUAGCAAAGAUGGUCUUGUUAACGACGGGAUUCGAGAGGAAAGCCUCUGACUCAUCCACAGAGAGAUCCAGAAGUUGUGCCAUCAACAGAGGAUUGAGCAUCA
B6: chr6:38654746:38654747:-_ENSG00000124767_ENST00000373365|hu_mus|FALSE|FALSE (ssRNA)
RNA: GGGAGUUCUACAGUCCGACGAUCAAAAUCCAGGGACUUCUUAGGAUCCUUAAUUCUUAGCAUCGUUUGCUGCAGUAGAAAAUCCUUGGUGCUAGGGUCUGGAUCGGAGCAGCAGCUGAAAGCGGUCUCAUCAGUGAGGCCACUCAACAGAGGAUUGAGCAUCA
B7: chr2:201681052:201681053:+_ENSG00000082153_ENST00000409600|hu_mus|FALSE|FALSE (ssRNA)
RNA: GGGAGUUCUACAGUCCGACGAUCUUUAACUUCAUCUUCAAAACCUUUCUCCAGGUAUUUGUAGCGCCUGAUUAGCUUGUUAAAAACCUGAGCGAAUGCUUGCAUGGUCUCUAGGUCUUCUUGUGCUGCGAACACACAGACAUCCAACAGAGGAUUGAGCAUCA
B8: chr2:216981417:216981418:+_ENSG00000079246_ENST00000392132|hu_hu|hu_hu_hu_mus_True|18_48 (ssRNA)
RNA: GGGAGUUCUACAGUCCGACGAUCCUGAUACUGGUCCUUGCCAGCAAGGGCAUUAUCAGUGCCAUCUGUGCCAUAGAGGACUAACGCAAUCUCAUCCUUGCUCUCCGAAAAUACCUGUCGCUGUACAAACAUAGUCAUCACUUUCAACAGAGGAUUGAGCAUCA
B9: chr13:21488354:21488355:-_ENSMUSG00000021327_ENSMUST00000070785|mus_mus|FALSE|FALSE (ssRNA)
RNA: GGGAGUUCUACAGUCCGACGAUCUUGUUCCACCUUUAUGACCAGUAGCUCCAUCUGGUCCUCUGCAGAGUGUGAGUCCAAGGUUGUGCUUUCCCUUGAUUCUCUAGCCAUCCCGAACCAAGCAGUUCUCCCGUUUCACUGUAGCAACAGAGGAUUGAGCAUCA
B10: chr15:59323432:59323433:+_ENSG00000157450_ENST00000557998|hu_mus|FALSE|FALSE (ssRNA)
RNA: GGGAGUUCUACAGUCCGACGAUCCACUGUAUCAGAGCCCCCAAAAUGGAGACUAGAUGAGGGAGAAGACAGACACUCACUUAAGGAAGAGUCAUUAUCCUCAUCACUCGGUGUCUCUAGCUGUUGUCUGCGCCCUAGGAUUUCCAACAGAGGAUUGAGCAUCA
B11: chr13:41369856:41369857:+_ENSMUSG00000091264_ENSMUST00000165561|mus_mus|motif|central (ssRNA)
RNA: GGGAGUUCUACAGUCCGACGAUCUUGGCCUUGAAGCUCAUUUCCCGUAUGGAGCAGACAACACUAGAAGGUUCAUCAGUCGGUCACUUCUCUAGUUAACAGUCCAAAGUUCGGGUAGAACAAACAUGGACUCCUGGCAAGAGGCAACAGAGGAUUGAGCAUCA
B12: chr1:163116782:163116783:-_ENSG00000143248_ENST00000313961|hu_mus|motif|central (ssRNA)
RNA: GGGAGUUCUACAGUCCGACGAUCCCAUGAAAGGGGACACUUGCAUCUGUUUUUCUUUUCAGCCUGGUUAAAAUAGCAGUCGGUCACCUAUUCUUUGCACAGACAGCUUUAUGUUAAACUGGAUAUUUUUGUGACUUAGACUGACAACAGAGGAUUGAGCAUCA
B13: 130225066_130225186_396_CDS_ENSMUSG00000028580_ENSMUST00000105991|mouse|control|control (ssRNA)
RNA: GGGAGUUCUACAGUCCGACGAUCUGUAGGCCAUCGAUGUUUGCUAGUAUUAUAGCCGCCUCCACCACUUCCUCCUCCCCCAAGCUGCUCACCAUGCUGCCUCUGAAAGAAGUAGUCCACCAUAGCGUCGUCCUGGGAACGGCCCAACAGAGGAUUGAGCAUCA
B14: chr6:114281168:114281169:-_ENSG00000196591_ENST00000368632|hu_hu|hu_hu_hu_mus_True|38_98 (ssRNA)
RNA: GGGAGUUCUACAGUCCGACGAUCUUCCAUUUUUCGGUAUAAGCCAUAAUUUAGCAGCAAGUUAUGAGUCAUCCGGAUUCUAUGAGGCUUCAUGGGAUGACCCUGUCCAUAAUAAUAAUUGCCAAUAUCACCAUCAUAGUAGUACAACAGAGGAUUGAGCAUCA
B15: chr14:102036314:102036315:-_ENSMUSG00000075486_ENSMUST00000100339|mus_hu|motif|central (ssRNA)
RNA: GGGAGUUCUACAGUCCGACGAUCCUUAAGAGAUCUGCAAGUGUCUGAGCUCACAGCCAUACCCAGUUUCCACUGAAAAUCGGCAAGCUGGUUGGUGACAUCGGACUUAGCAUCCAGCGGCGGCUCGCUGGACGCCUCCAUGGGCAACAGAGGAUUGAGCAUCA
B16: chr2:166753246:166753247:+_ENSMUSG00000002718_ENSMUST00000002790|mus_hu|FALSE|FALSE (ssRNA)
RNA: GGGAGUUCUACAGUCCGACGAUCAAAUAGAUUCUUAUAAUGAGGUCUCUCACAAACUGAAGCCAGAAAUUGAAUUGCAUUACUUACCAACAAAUCAUAUUUAACCUCUUGACCCGUUGUAACUAGUAAAUUCCAGAUGGCUGUCAACAGAGGAUUGAGCAUCA
B17: chr11:77336104:77336105:-_ENSG00000074201_ENST00000525064|hu_mus|hu_hu_hu_mus_False|1_18 (ssRNA)
RNA: GGGAGUUCUACAGUCCGACGAUCCUCACACAUUGCUGUGAACAUCGCCUCCAAUGCUGACUUAUCACUGGGCACAAAUCGAAAUUCAGAAAUGGGUUCAACAUCAUCAUUGUCUUCUUCCUCUUCUUCAGAGAGAGCAGGUUCCAACAGAGGAUUGAGCAUCA
B18: 90420490_90421851_7730_CDS_ENSG00000112159_ENST00000369393|human|control|control (ssRNA)
RNA: GGGAGUUCUACAGUCCGACGAUCUUCCAAAUGAAUUUGUAUGGACUCAAGCCCCUGCGGUAUAUUCUUGGCUAAAUGAUAAAGCCAUUUAACUCUGAGCAUCCAAUCCUGAUUGGUUGCUCUUUCUAUGAGCAAUUUAACAGCCAACAGAGGAUUGAGCAUCA
B19: chr9:95363179:95363180:-_ENSMUSG00000032407_ENSMUST00000079659|mus_hu|FALSE|FALSE (ssRNA)
RNA: GGGAGUUCUACAGUCCGACGAUCUGAUCGCCUAGACCUUUUAGGUGUCCUUGAACCAGAUGGUGAUCUUUUGGCUUUUUUGCUAACAUCUCUAGGAGAAUCUUUGUGAGAUGACCUGGACCGUGAGCUCUCUUUAUGAGAUCUCAACAGAGGAUUGAGCAUCA
B20: chr18:80415450:80415451:+_ENSMUSG00000057130_ENSMUST00000145963|mus_hu|FALSE|FALSE (ssRNA)
RNA: GGGAGUUCUACAGUCCGACGAUCUACAUUUUGUUGAAGUCAGGCACUUCUGUAAUAUCCACAAGAUAAAUAACUGCAAAAUUUUUAACGCCUCUUUCCAGUGGCUCCAGCCUCCAGUGGUGGGUAUCCUCCUUCCAAGGUCAGCAACAGAGGAUUGAGCAUCA
B21: 45676174_45677357_897_CDS_ENSMUSG00000042790_ENSMUST00000161187|mouse|control|control (ssRNA)
RNA: GGGAGUUCUACAGUCCGACGAUCAAAUACUUGAAGCAUGAAAUCUGCCUCUGAGGGUGGUGGAGGCAAAGUUGGGGUAGGGAUCUGAGGAAGGCUGCUCAGCUUGGCUCCAUUCCUCACUAGCUGGAUAUGACUAUUAAACUGCAACAGAGGAUUGAGCAUCA
B22: chr5:21408736:21408737:-_ENSMUSG00000042453_ENSMUST00000161356|mus_hu|mus_mus_mus_hu_False|8_108 (ssRNA)
RNA: GGGAGUUCUACAGUCCGACGAUCGUUGACAGCAUUAUAGAUGGUGGCUUCAUGGAACUGGAAAGGGGAGCAGCCAAUGCUGUUAGAAGAGGAAGGAAGGCACUGGGUCUGUACGAGCUGCCAGGAAUCGGACCUUGCAUCCUUCAACAGAGGAUUGAGCAUCA

The assay deals with T1, UNK ZnF1-3. Put plainly: nsRBNS (natural sequence RNA bind-n-seq); RBNS binding buffer (assumed for nsRBNS): 25 mM Tris pH 7.5, 150 mM KCl, 3 mM MgCl2, 0.01% Triton X-100, 500 ug/ml BSA, 20 U/ml SUPERase-In, 4 C; UNK is unkempt and MSI1 is Musashi-1; names of the RNAs are library labels; protein concentration not given here; high values mean tight binding.
B1 returned a binding signal of 2.12 enrichment R.
The molecule B2 returned a binding signal of 1.19 enrichment R.
B3: the binding signal turned out to be 1.16 enrichment R.
Then B4, with 0.745 enrichment R.
In the case of B5 it was 1.02 enrichment R; in that of B6, 0.704 enrichment R.
As for B7, the binding signal was 0.484 enrichment R.
The molecule B8 gave a binding signal of 0.836 enrichment R.
In the case of B9 it was 0.707 enrichment R.
The molecule B10 registered a binding signal of 0.988 enrichment R.
In the case of B11 it was 1.06 enrichment R; in that of B12, 1.01 enrichment R.
In the case of B13 it was 0.883 enrichment R; in that of B14, 0.946 enrichment R; in that of B15, 0.706 enrichment R.
In the case of B16, the binding signal was 1.31 enrichment R.
B17 gave a binding signal of 0.97 enrichment R.
For B18, the binding signal was found to be 0.738 enrichment R.
B19 had a binding signal of 0.388 enrichment R.
For B20, the binding signal is 1.15 enrichment R.
Then B21, with 0.819 enrichment R; and B22, with 1.81 enrichment R.
